Laboratory results published in article PMC11035576.
Results are given in words; binding and its absence hold for the method and conditions named. In cells and extracts the contact can be indirect. Some entries that bind do so weakly or less than the wild type.

Protein sequences, listed by entry. Tags and fused reporters are not part of them.
UniProt O00560: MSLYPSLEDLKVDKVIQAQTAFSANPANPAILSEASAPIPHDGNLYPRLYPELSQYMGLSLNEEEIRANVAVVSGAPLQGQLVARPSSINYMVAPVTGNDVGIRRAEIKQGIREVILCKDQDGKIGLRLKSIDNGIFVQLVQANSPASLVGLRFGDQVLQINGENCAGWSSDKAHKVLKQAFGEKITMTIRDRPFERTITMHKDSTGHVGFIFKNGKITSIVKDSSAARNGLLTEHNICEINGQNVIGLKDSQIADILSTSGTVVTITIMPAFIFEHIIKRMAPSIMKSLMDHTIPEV

Columns and labels:
[1] = target: Syndecan-binding protein (SDCBP), endogenous in ESCC cells (human (endogenous in KYSE450 and KYSE30)) (UniProt O00560); assay: co-IP; KYSE450 cell lysates immunoprecipitated with anti-SDCBP, immunoblotted; cells untreated or treated with the indicated drugs at 100 μM
[2] = target: Syndecan-binding protein (SDCBP), endogenous in ESCC cells (human (endogenous in KYSE450 and KYSE30)) (UniProt O00560); assay: condition: only cells treated with 100 μM dexrazoxane; co-IP; KYSE450 cells treated with 100 μM dexrazoxane; lysates immunoprecipitated with anti-SDCBP, immunoblotted
[3] = target: Syndecan-binding protein (SDCBP), endogenous in ESCC cells (human (endogenous in KYSE450 and KYSE30)) (UniProt O00560); assay: condition: only cells treated with 100 μM zalcitabine; co-IP; KYSE450 cells treated with 100 μM zalcitabine; lysates immunoprecipitated with anti-SDCBP, immunoblotted
[4] = target: EGFR, endogenous in ESCC cells (human (endogenous in KYSE450 and KYSE30)) (UniProt P00533); assay: co-IP; KYSE450 and KYSE30 cells treated with 0, 25 and 50 μM dexrazoxane for 24 h; lysates immunoprecipitated with anti-EGFR overnight at 4 °C, protein A/G agarose, Western blot
[5] = target: exogenous EGFR (transfected into HEK293T cells) (UniProt P00533); assay: co-IP; HEK293T cells transfected with SDCBP and EGFR; lysates immunoprecipitated with anti-Flag or anti-HA overnight at 4 °C, protein A/G agarose, Western blot
[6] = target: exogenous EGFR (transfected into HEK293T cells) (UniProt P00533); assay: condition: only cells treated with dexrazoxane (25 and 50 μM for 24 h); co-IP; HEK293T cells transfected with SDCBP and EGFR and treated with dexrazoxane (25 and 50 μM for 24 h); lysates immunoprecipitated with anti-Flag or anti-HA, Western blot

Substance: EGFR, endogenous in ESCC cells (from UniProt P00533 25-1210) (receptor)
- binding [1]: binds
- binding [2]: no binding
- binding [3]: no binding

Substance: Syndecan-binding protein (SDCBP), endogenous in ESCC cells (from UniProt O00560 1-298)
- binding [4]: binds

Substance: exogenous SDCBP (transfected into HEK293T cells) (from UniProt O00560 1-298)
- binding [5]: binds
- binding [6]: no binding
